Measured values from US20040181033A1 (Amgen, published 2004).
Where two headings read alike, the source gives them in different places.

T1: recombinant mature myostatin (human, UniProt O14793 267-375)
T1 sequence (looked up): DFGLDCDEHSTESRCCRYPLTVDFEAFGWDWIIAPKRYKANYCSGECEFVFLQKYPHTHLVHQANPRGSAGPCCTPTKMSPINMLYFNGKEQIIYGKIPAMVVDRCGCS


Experiments:
[1] = molecular target: T1, recombinant mature myostatin; experiment: cell-based or functional assay
[2] = molecular target: T1, recombinant mature myostatin; experiment: cell-based or functional assay; remark: listed apart in the source

Binder | IC50 (C2C12 pMARE-luc) [1] [nM] | IC50 (C2C12 pMARE-luc) [2] [nM]
Myostatin-2xTN8-19 kc (Fc fusion) [letters of human IgG1 Fc left out]GSGSATGGSGSTASSGSGSATGQGHCTRWPWMCPPYGSGSATGGSGSTASSGSGSATGQGHCTRWPWMCPPY | ~9 | –
Myostatin-Linear-20 (Fc fusion) MYREMSMLEGLLDVLERLQHYGGGGG[letters of human IgG1 Fc left out] | – | 11

The next lines start with the values.

IC50 (C2C12 pMARE-luc) [1] [nM] | IC50 (C2C12 pMARE-luc) [2] [nM] | Binder
– | 90.2 | mL2-7 (Fc fusion) MGAQRMEMLESLFELLKEIVPMSKAGLEGGGGG[letters of human IgG1 Fc left out]
– | 106 | mL2-9 (Fc fusion) MGAQQMELLDSLFELLKEIVPKSQPALEGGGGG[letters of human IgG1 Fc left out]
– | 30 | Myostatin-TN12-34 (Fc fusion) MAHWCEQGPWRYGNICMAYGGGGG[letters of human IgG1 Fc left out]GGGGGAHWCEQGPWRYGNICMAY
